The text below walks through data of ChEMBL document CHEMBL4888484, “Replenishing the malaria drug discovery pipeline: Screening and hit evaluation of the MMV Hit Generation Library 1 (HGL1) against asexual blood stage Plasmodium falciparum ,using a nano luciferase reporter read-out” (2022).

Hit rate of the full screen: of about 150,000 compounds, about 540 (0.36%) showed an effect of 50% or more. This is one part of the list.

The test concerns Plasmodium falciparum. The test is described as follows: Primary screen in NF54 nanoGlo assay, in single point, at 2uM, 72h; a lower Z score goes with more inhibition. The format is functional, Erythrocyte. As to conditions: timepoint 72 hour.
As for `N#CCCCCS(=O)(=O)c1ccccc1O`, the “% Inhibition” value is listed as -13% and the Z score was found to be 1.81.
In the case of `Cc1cnc(C2CN(C(=O)c3cccs3)C2)n1CC1CC1`, the “% Inhibition” value amounted to 5% and the Z score is reported as -0.93.
For `COc1cccc(CN2CCC[C@@]3(CCN(Cc4ncccn4)C3)C2=O)c1OC`, the “% Inhibition” value is -10% and the Z score worked out at 1.29.
Consider `Cc1cc(Cl)c(NC(=O)Nc2cnn(CCO)c2)c2cccnc12`, for which the “% Inhibition” value is 9% and the Z score was -1.28.
The matching figures for `O=C(c1ccoc1)N1CCc2ccccc21`: -12% and 1.29.
For `COc1cccc([C@@H]2CNC(=O)c3nc(-c4cccc(CN(C)C)c4)[nH]c3C2)c1`, the “% Inhibition” value is reported as 8% and the Z score is -1.37.
For `C[C@H](O)CN1CCC(CN(C)c2ncccc2C#N)CC1` the same measures were -6% and 0.81.
For `COc1ncccc1-c1cnn(CC(=O)Nc2nn(C)c3nc(C)cc(C)c23)c1`, the “% Inhibition” value is -3% and the Z score is given as 0.58.
In the case of `COCCOCCC(=O)NCCCCC1(C)OCCO1`, the “% Inhibition” value is listed as -5% and the Z score came to 0.7.
In the case of `Nc1ncc(-c2c(-c3ccccc3)ncn2CCc2cccs2)cn1`, the “% Inhibition” value was -13% and the Z score amounted to 1.73.
The matching figures for `CC1CCC(NS(=O)(=O)c2ccc3onc(C(=O)N4CCCCC4)c3c2)CC1` (stereo unspecified): -9% and 1.43.
For `Cc1cccc(-c2nnc3c4ccccc4nc(N4CCN(C(=O)c5ccc(F)cc5)CC4)n23)c1` the same measures were 9% and -1.23.
For `CNC(=O)c1cccc(NC(=O)[C@](C)(NC(C)=O)c2cccc(C(F)(F)F)c2)c1C`, the “% Inhibition” value was -11% and the Z score worked out at 1.64.
The matching figures for `COc1ccc(CON=C(N)CN2CCOCC2)cc1`: -3% and 0.51.
For `O=C(Nc1ccccc1)N(Cc1cc(-c2ccccc2)on1)Cc1ccco1`, the “% Inhibition” value is -10% and the Z score was found to be 1.28.
The matching figures for `O=S(=O)(Cc1ccccc1)N1CC[C@H](N2CCCS2(=O)=O)C1`: -13% and 2.39.
For `CN1CC2(CCC1=O)CCN(C(=O)COC[C@H]1CCCO1)CC2`, the “% Inhibition” value is given as -3% and the Z score turned out to be 0.63.
In the case of `CC1(C)COc2c(C(=O)Nc3cccc4c3CCNC4=O)cccc21`, the “% Inhibition” value is -11% and the Z score amounted to 1.
The matching figures for `COc1ccc(C(O)(c2ccc(OC)cc2)c2ccc(CN(Cc3cc(OC)cc(OC)c3)C(C)C)o2)cc1`: -1% and 0.11.
For the compound `Cc1cc(C(=O)NCc2cn3c(n2)C(=O)N(Cc2ccccc2)CC3)n(C)n1`, the “% Inhibition” value is -20% and the Z score was found to be 2.59.
As to `Cc1n[nH]c(C)c1CCC(=O)N1CC[C@](C)(c2cccc(F)c2)C1`, the “% Inhibition” value is -6% and the Z score is recorded as 1.11.
For `CCn1cc(CN2CCC(C(=O)NC3CCCCCC3)CC2)c2cc(Cl)ccc21`, the “% Inhibition” value was found to be 2% and the Z score is -0.31.
With `CC(C)[C@@]1(O)CN(Cc2ccc(S(C)(=O)=O)cc2)C[C@@H]1C`, the “% Inhibition” value is reported as -11% and the Z score is 1.93.
For `COc1cc(C(=O)Nc2cc(C)ccn2)ccc1OCC(=O)N1CCOCC1` the same measures were -4% and 0.7.
`O=C(NCc1ccccc1Cl)c1ccccc1OC[C@H]1CCCO1`: the “% Inhibition” value is on record as -7% and the Z score amounted to 1.02.
Regarding `C[C@H](NS(C)(=O)=O)C(=O)N1Cc2cnc(-c3ccccc3)nc2C1`, the “% Inhibition” value is given as -5% and the Z score is 0.86.
The matching figures for `COc1cc(C(=O)Nc2cccc(-c3nc(C)co3)c2)ccc1OCC(N)=O`: -2% and 0.21.
Turning to `COc1ccccc1C[C@H](NC(C)=O)C(C)C`, the “% Inhibition” value is on record as -5% and the Z score worked out at 0.84.
The matching figures for `O=C(Nc1nnc(C2CC2)s1)c1cc(C2CC2)on1`: -9% and 1.49.
Take `CCCN(C(=O)c1cnccn1)C1CC(OCC)C1(C)C` (stereo unspecified): the “% Inhibition” value is reported as -5% and the Z score is 0.61.
For `O=C1CC[C@H](CCNCc2cccnc2)N1Cc1ccc(Cl)s1` the same measures were -1% and 0.11.
On to `Cc1nnc([C@@H]2CC(F)(F)CN2C(=O)c2nccc3ccccc23)o1`, for which the “% Inhibition” value amounted to 8% and the Z score is listed as -1.34.
As for `Cc1nnc2c(=O)n(CC(=O)N(C)Cc3ccccc3)c3cccnc3n12`, the “% Inhibition” value is on record as -6% and the Z score was found to be 0.76.
The matching figures for `CCC(COC)NC(=O)C1CCCN(c2nc(C)c3ccc(S(C)(=O)=O)cc3n2)C1` (stereo unspecified): 0% and 0.01.
Take `CCCCS(=O)(=O)N(Cc1ccco1)C1CCN(C)CC1`: the “% Inhibition” value is given as -5% and the Z score worked out at 0.49.
As to `NS(=O)(=O)c1ccc(CCNC(=O)c2ccc3c(c2)CCCC3)cc1`, the “% Inhibition” value is given as -9% and the Z score is on record as 1.05.
As to `CNS(=O)(=O)CC1CCCN1C(C)C(=O)N1CCC(C)CC1` (stereo unspecified), the “% Inhibition” value was 11% and the Z score is listed as -1.18.
As to `CCC(CC)N(C)C(=O)NCCc1ccccc1`, the “% Inhibition” value is given as -3% and the Z score was 0.48.
The matching figures for `COCc1cccc(C(=O)N2CC[C@]3(OC)CC[C@H](O)C[C@H]23)n1`: -3% and 0.53.
For the compound `O=C1CC[C@@]2(CCCN(C(=O)c3ccncc3)C2)CN1CCc1c[nH]cn1`, the “% Inhibition” value is -8% and the Z score was 1.
For `CCC1Oc2cc(S(=O)(=O)N3CCCC(C(=O)N4CCCCC4C)C3)c(C)cc2NC1=O` (stereo unspecified) the same measures were -13% and 1.54.
As to `CCc1noc(NC(=O)[C@H]2CCCO2)n1`, the “% Inhibition” value is 13% and the Z score is given as -1.54.
The matching figures for `Cc1n[nH]c(CN2CCC(C(=O)NCc3ccccc3)CC2)c1Cl`: 4% and -0.8.
`COc1ccc(NC(=O)C2(N(C(=O)CC3C(c4c(C)[nH]c5ccccc45)C3(C)C)C3CC3)CCN(C)CC2)cc1` (stereo unspecified): the “% Inhibition” value was -9% and the Z score is on record as 1.01.
For the compound `Cc1noc(-c2ccc(NC(=O)c3ccc(C)c(N4CCOCC4)c3)cn2)n1`, the “% Inhibition” value is 3% and the Z score is -0.4.
With `Cc1nn(-c2ccccc2)c(NC(=O)C2CCCCC2)c(-c2ccc(Cl)cc2)c1=O`, the “% Inhibition” value was -3% and the Z score was found to be 0.35.
For `C#C[C@H](C)OC(=O)c1cccc(Nc2cnccn2)c1`, the “% Inhibition” value was found to be 36% and the Z score is given as -0.71.
For `C[C@H]1CN(Cc2ccccc2)CCN1Cc1ccn[nH]1`, the “% Inhibition” value was -2% and the Z score is listed as 0.45.
Regarding `Nc1c2c(-c3cccs3)nc(N3CCN(Cc4ccc(Cl)cc4)CC3)nc2nn1-c1ccccc1`, the “% Inhibition” value worked out at 2% and the Z score is given as -0.47.
Regarding `CCCc1nnc(N[C@H]2CCN(C)C2=O)s1`, the “% Inhibition” value amounted to 0% and the Z score is listed as -0.05.
As to `O=C1C(=O)N(CN2CCC(CN3C(=O)c4ccccc4C3=O)CC2)c2cc3c(cc21)OCCO3`, the “% Inhibition” value was -9% and the Z score is reported as 1.65.
For `O=C1O[C@H](C(=O)Nc2ccc3ccccc3c2)Cc2ccccc21`, the “% Inhibition” value is reported as -19% and the Z score amounted to 2.79.
For `CN(CC(O)C(F)(F)F)C(=O)NC1CC2CCCc3cccc1c32` (stereo unspecified) the same measures were -10% and 0.86.
